The list shows a part of the results.
B1: ENSG00000009954:stop:overlap|stop_codon|ENSG00000009954|stop_codon|NA|stop_codon (ssRNA)
RNA: GGGAGUUCUACAGUCCGACGAUCAUGAAGGGGACAGUGAGCCAGAGGCCGUUGGACAGUCCAGGGGACGAAGACAGAAGAAGUAGAGAGGCAGGGCCGUGGUGACAGUAUCAGUGAGUGCCAUACAGAAUUGUGUAUUCACCACAACAGAGGAUUGAGCAUCA
B2: chr10:88913158:88913259:+|CDS|ENSG00000138134|unk|FALSE|unique (ssRNA)
RNA: GGGAGUUCUACAGUCCGACGAUCGCAUCAGAGAUUGAUAGAGGCAGAAAGGAAGCGGAUUGCUCAGAUGCGCCAGCAGCAGCUAGAAUCGGAGCAGUUUCUGUUUUUCGAAGAUCAACUCAAGAAGCAAGAGUUAGCCCGAGGCAACAGAGGAUUGAGCAUCA
B3: ENSG00000184117:stop:overlap|stop_codon|ENSG00000184117|stop_codon|NA|stop_codon (ssRNA)
RNA: GGGAGUUCUACAGUCCGACGAUCUGGGCAACUGGAACACGUGGUAUGGGGAGCAGGACCAGGCAGGUCAUUCCUGGUUUUGGUAGAUUUCUAUCCAUACAGUACUUUUGCCAUUUCCUUUGGGAAAAAGACCUUUAAACCAUACAACAGAGGAUUGAGCAUCA
B4: chr15:34980028:34980129:-|3pUTR|ENSG00000198146|msi1|FALSE|unique (ssRNA)
RNA: GGGAGUUCUACAGUCCGACGAUCGGUUCUGUUAUUUAAGCCUGUUCUAAGUUUGAUCAAAUGGCAAUGACUAGGUCUAGUUUUAGUUUUUAUUUUUGCAGGAGUCUAUUGCUAAAGAAUUUUAUUUUGAUGCUUGUUAAAUUUCAACAGAGGAUUGAGCAUCA
B5: chr5:80437677:80437780:+|CDS|ENSG00000039319|unk|FALSE|unique (ssRNA)
RNA: GGGAGUUCUACAGUCCGACGAUCUUCCUUUCAGGAAGAUAAGACUGUUAUAAAACAAUCUGCACAAGAAGACUCAAAAAGUUUAGACCUUAAGGAUAAUGAUGUAAUCCAAGAUUCCUCUUCAGCUUUACAUGUUUCCAGUAACAACAGAGGAUUGAGCAUCA
B6: chr2:112781603:112781826:-|CDS|ENSG00000115008|control|control|control (ssRNA)
RNA: GGGAGUUCUACAGUCCGACGAUCGAGUAUCUCUGAAACCUCUAAAACAUCCAAGCUUACCUUCAAGGAGAGCAUGGUGGUAGUAGCAACCAACGGGAAGGUUCUGAAGAAGAGACGGUUGAGUUUAAGCCAAUCCAUCACUGACAACAGAGGAUUGAGCAUCA
B7: chr1:153933785:153933886:-|CDS|ENSG00000198837|msi1|FALSE|unique (ssRNA)
RNA: GGGAGUUCUACAGUCCGACGAUCGGGAAGUUGGUGCAGAGGCUGGGGUCCAUCUUCCCUCAUUCUUUUCUGUGCUGCAGUGAUAGAGGCCUUGGGGGUCCUGGAACCCCGGGGAUCACCUGUGCCCUGGCACGAUGGAAGUCUCAACAGAGGAUUGAGCAUCA
B8: chr6:89794666:89794767:-|CDS|ENSG00000112159|unk|FALSE|unique (ssRNA)
RNA: GGGAGUUCUACAGUCCGACGAUCCCAGUCUUUCAAAGACUUUUCCUAGAGAGUUCAGAUGCUAAUCCAGUACGCUAUGGACGUAGGAGGAUGAAGCUCCGGGACCUAAUGGAAGCAGCCUUCAAGUUUCUGCAGCAGGAGCAGCAACAGAGGAUUGAGCAUCA
B9: ENSG00000177108:stop:overlap|stop_codon|ENSG00000177108|stop_codon|NA|stop_codon (ssRNA)
RNA: GGGAGUUCUACAGUCCGACGAUCUGGGCCUGCUGGUCCCCAUGUUCAAUGUCGGAAGUGAGAGCUCCAAGCAGCAGGAUAAGUAGUAGACACUCCCGUCAUUUAUCUCUCUGUCUCUGUCUUGACUCCUCCUGAGCAUAAAACCAACAGAGGAUUGAGCAUCA
B10: chr17:4948375:4948459:-|5pUTR_CDS|ENSG00000108518|msi1_unk|FALSE|overlapping (ssRNA)
RNA: GGGAGUUCUACAGUCCGACGAUCAGCCGAGGCAGCUCGAGCCCAGUCCGCGGCCCCAGCAGCAGCGCCGAGAGCAGCCCCAGUAGCAGCGCCAUGGCCGGGUGGAACGCCUACAUCGACAACCUCAUGGCGGACGGGACCUGUCAACAGAGGAUUGAGCAUCA
B11: chr19:6534681:6534787:+|CDS|ENSG00000125657|unk|FALSE|unique (ssRNA)
RNA: GGGAGUUCUACAGUCCGACGAUCAGAGGACACGAAGGAGCUGGUGGUGGCCAAGGCUGGAGUCUACUAUGUCUUCUUUCAACUAGAGCUGCGGCGCGUGGUGGCCGGCGAGGGCUCAGGCUCCGUUUCACUUGCGCUGCACCUCAACAGAGGAUUGAGCAUCA
B12: chr19:33301014:33301115:-|3pUTR|ENSG00000245848|unk|total|mutant (ssRNA)
RNA: GGGAGUUCUACAGUCCGACGAUCUCCCUGCGAGGAGGGGAGAAUUCUUGGGGCUGAGCUGGGAGCCCGGCAACUCCCGUAUUCCGGAUAACCUUGUGCCUUGGAAAUGCAAACUCACCGCUCCAAUGCCUACUGAGCCGGGGGCAACAGAGGAUUGAGCAUCA
B13: ENSG00000171649:stop:overlap|stop_codon|ENSG00000171649|stop_codon|NA|stop_codon (ssRNA)
RNA: GGGAGUUCUACAGUCCGACGAUCCUCAGGUUGUGGCCAUGGAACAGAGGAUGAAGAGACACCUUCUGACCAGAAUGUUUCUGUAGGAGUGUCACAGUCAAAGGCAGGUUCAUCCACACAGAAGACUCAAUCCUGUGAGAUGUGCAACAGAGGAUUGAGCAUCA
B14: chr15:32969305:32969406:-|CDS|ENSG00000248905|unk|FALSE|unique (ssRNA)
RNA: GGGAGUUCUACAGUCCGACGAUCCGAGCAUGCAAUGAUAACAGCGAGACUAGAAGAAACCAUUGAAAAUCUGAAACACGAGCUAGAACACAGAUGGCGAGGGGGUUGUGAAGAGAGGAAAGAUGUGUGCAUUUCCACCGAUGACAACAGAGGAUUGAGCAUCA

Molecular target: MSI1 full-length (mouse, UniProt Q61474 1-362)
UniProt Q61474, sequence (Q61474 whole entry): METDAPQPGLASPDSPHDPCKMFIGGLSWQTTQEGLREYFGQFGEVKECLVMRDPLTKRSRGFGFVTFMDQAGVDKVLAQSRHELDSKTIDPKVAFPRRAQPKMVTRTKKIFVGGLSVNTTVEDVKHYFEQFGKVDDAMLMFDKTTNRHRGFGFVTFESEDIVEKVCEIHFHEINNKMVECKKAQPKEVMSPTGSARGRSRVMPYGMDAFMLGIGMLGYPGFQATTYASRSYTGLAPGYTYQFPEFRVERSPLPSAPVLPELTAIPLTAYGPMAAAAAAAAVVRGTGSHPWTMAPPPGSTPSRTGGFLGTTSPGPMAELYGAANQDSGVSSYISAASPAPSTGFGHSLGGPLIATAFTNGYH
Experiment: nsRBNS (natural sequence RNA bind-n-seq); RBNS binding buffer (assumed for nsRBNS): 25 mM Tris pH 7.5, 150 mM KCl, 3 mM MgCl2, 0.01% Triton X-100, 500 ug/ml BSA, 20 U/ml SUPERase-In, 4 C; UNK is unkempt and MSI1 is Musashi-1; names of the RNAs are library labels; protein concentration not given here; high values mean tight binding

| Binder | binding signal [enrichment R] |
| --- | --- |
| B1 | 0.379 |
| B2 | 0.374 |
| B3 | 1.55 |
| B4 | 77.2 |
| B5 | 0.882 |
| B6 | 0.419 |
| B7 | 0.553 |
| B8 | 0.369 |
| B9 | 0.404 |
| B10 | 0.624 |
| B11 | 0.554 |
| B12 | 0.362 |
| B13 | 0.359 |
| B14 | 0.963 |

From publication PMC12136788
